This test addresses WDR5 (Homo sapiens, UniProt P61964). In words: biochemical. It is filed as binding. The conditions noted are these: WDR5-His tag (Δ23, residues 24-334) 2 nM; 10mer-Thr-FAM probe 150 nM; Tb-anti-HIS 1 nM; 60 min, room temperature; read-out: Ki for Inhibition of WDR5 by TR-FRET assay. A general note: In TR-FRET formats the signal depends on donor and acceptor labels being close together.

Drawing on US11999716B2, “WDR5 inhibitors and modulators” (priority 2018, dated 2024), this text covers Ki for 20 compounds.

By Ki is commonly meant a measure of affinity in units of concentration, obtained from inhibition or displacement. As for `CCn1cc(-c2cc(CN3CCOC3=N)cc3c2CCN(Cc2cn(C)nc2C)C3=O)c(C(F)(F)F)n1` [Example 98, 2-((1,3-Dimethyl-1H-pyrazol-4-yl)methyl)-5-(1-ethyl-3-(trifluoromethyl)-1H-pyrazol-4-yl)-7-((2-iminooxazolidin-3-yl)methyl)-3,4-dihydroisoquinolin-1(2H)-one], the Ki is less than 0.05 nM. With `Cc1nccn1Cc1cc2c(c(-c3cn(C)nc3C(F)(F)F)c1)CCN(CC1CCCOC1)C2=O` (centres unmarked) [Example 167, 7-((2-Methyl-1H-imidazol-1-yl)methyl)-5-(1-methyl-3-(trifluoromethyl)-1H-pyrazol-4-yl)-2-((tetrahydro-2H-pyran-3-yl)methyl)-3,4-dihydroisoquinolin-1(2H)-one] the figure was 0.53 nM; with `COc1cc(CN2CCc3c(cc(Cn4ccn(C)c4=N)cc3-c3c(C)nn(C)c3C)C2=O)cc(OC)c1` [Example 64, 2-(3,5-Dimethoxybenzyl)-7-((2-imino-3-methyl-2,3-dihydro-1H-imidazol-1-yl)methyl)-5-(1,3,5-trimethyl-1H-pyrazol-4-yl)-3,4-dihydroisoquinolin-1(2H)-one], 2 nM; with `COc1cc(CN2CCc3c(OCC4CC4)cc(Cn4ccnc4C4CC4)cc3C2=O)cc(OC)c1` [Example 19, 7-((2-Cyclopropyl-1H-imidazol-1-yl)methyl)-5-(cyclopropylmethoxy)-2-(3,5-dimethoxybenzyl)-3,4-dihydroisoquinolin-1(2H)-one], 9.7 nM. `COc1ccnc([C@H](C)N2CCc3c(cc(Cn4ccnc4C)cc3-c3ccncc3C(F)(F)F)C2=O)c1` [Example 248, (S)-2-(1-(4-Methoxypyridin-2-yl)ethyl)-7-((2-methyl-1H-imidazol-1-yl)methyl)-5-(3-(trifluoromethyl)pyridin-4-yl)-3,4-dihydroisoquinolin-1(2H)-one]: the Ki was less than 0.05 nM. As for `COc1cc(CN2CCc3c(cc(Cn4ccoc4=N)cc3-c3cccnc3C(F)(F)F)C2=O)cc(OC)c1` [Example 80, 2-(3,5-Dimethoxybenzyl)-7-((2-iminooxazol-3(2H)-yl)methyl)-5-(2-(trifluoromethyl)pyridin-3-yl)-3,4-dihydroisoquinolin-1(2H)-one], the figure is less than 0.05 nM; as for `CCc1nccn1Cc1cc2c(c(-c3cn(C)nc3C(F)(F)F)c1)CCN([C@@H](C)c1cc(C)cc(C)n1)C2=O` [Example 164, (S)-2-(1-(4,6-Dimethylpyridin-2-yl)ethyl)-7-((2-ethyl-1H-imidazol-1-yl)methyl)-5-(1-methyl-3-(trifluoromethyl)-1H-pyrazol-4-yl)-3,4-dihydroisoquinolin-1(2H)-one], less than 0.05 nM; as for `CCn1cc(-c2cc(Cn3ccoc3=N)cc3c2CCN(Cc2cn(C)nc2C)C3=O)c(C(F)(F)F)n1` [Example 97, 2-((1,3-Dimethyl-1H-pyrazol-4-yl)methyl)-5-(1-ethyl-3-(trifluoromethyl)-1H-pyrazol-4-yl)-7-((2-iminooxazol-3(2H)-yl)methyl)-3,4-dihydroisoquinolin-1(2H)-one], 0.086 nM. As for `COc1cc(CN2CCc3c(cc(Cn4ccnc4C4CC4)cc3-c3ccc(F)cc3C)C2=O)cc(OC)c1` [Example 16, 7-((2-Cyclopropyl-1H-imidazol-1-yl)methyl)-2-(3,5-dimethoxybenzyl)-5-(4-fluoro-2-methylphenyl)-3,4-dihydroisoquinolin-1(2H)-one], the figure is 0.086 nM. With `CCn1cc(-c2cc(Cn3ccn(C4CC4)c3=N)cc3c2CCN(Cc2cc(OC)ccn2)C3=O)c(C(F)(F)F)n1` [Example 58, 7-((3-Cyclopropyl-2-imino-2,3-dihydro-1H-imidazol-1-yl)methyl)-5-(1-ethyl-3-(trifluoromethyl)-1H-pyrazol-4-yl)-2-((4-methoxypyridin-2-yl)methyl)-3,4-dihydroisoquinolin-1(2H)-one] the figure was less than 0.05 nM; with `Cc1cc([C@H](C)N2CCc3c(cc(Cn4ccnc4C)cc3-c3cn(C)nc3C(F)(F)F)C2=O)ccc1F` [Example 24, (S)-2-(1-(4-Fluoro-3-methylphenyl)ethyl)-7-((2-methyl-1H-imidazol-1-yl)methyl)-5-(1-methyl-3-(trifluoromethyl)-1H-pyrazol-4-yl)-3,4-dihydroisoquinolin-1(2H)-one], 0.056 nM.

On to `COc1cc(CN2CCc3c(cc(Cn4cnn(C)c4=N)cc3-c3ncc(F)cc3C)C2=O)cc(OC)c1` [Example 124, 2-(3,5-Dimethoxybenzyl)-5-(5-fluoro-3-methylpyridin-2-yl)-7-((5-imino-1-methyl-1,5-dihydro-4H-1,2,4-triazol-4-yl)methyl)-3,4-dihydroisoquinolin-1(2H)-one], for which the Ki came to 0.13 nM. With `COc1cc(CN2CCc3c(cc(CN4CCOC4=N)cc3-c3cccnc3C(F)(F)F)C2=O)cc(OC)c1` [Example 82, 2-(3,5-Dimethoxybenzyl)-7-((2-iminooxazolidin-3-yl)methyl)-5-(2-(trifluoromethyl)pyridin-3-yl)-3,4-dihydroisoquinolin-1(2H)-one] the figure was less than 0.05 nM; with `Cc1nccn1Cc1cc2c(c(-c3cn(C)nc3C(F)(F)F)c1)CCN(Cc1ccccc1)C2=O` [Example 233, 2-Benzyl-7-((2-methyl-1H-imidazol-1-yl)methyl)-5-(1-methyl-3-(trifluoromethyl)-1H-pyrazol-4-yl)-3,4-dihydroisoquinolin-1(2H)-one], 0.2 nM; with `Cc1nccn1Cc1cc2c(c(-c3cn(C)nc3C(F)(F)F)c1)CCN(Cc1cc(Br)c3ccccc3n1)C2=O` [Example 204, 2-((4-Bromoquinolin-2-yl)methyl)-7-((2-methyl-1H-imidazol-1-yl)methyl)-5-(1-methyl-3-(trifluoromethyl)-1H-pyrazol-4-yl)-3,4-dihydroisoquinolin-1(2H)-one], less than 0.05 nM. Regarding `Cc1ccnc([C@H](C2CC2)N2CCc3c(cc(Cn4ccn(C)c4=N)cc3-c3ccc(F)cc3C)C2=O)c1` [Example 37, (S)-2-(Cyclopropyl(4-methylpyridin-2-yl)methyl)-5-(4-fluoro-2-methylphenyl)-7-((2-imino-3-methyl-2,3-dihydro-1H-imidazol-1-yl)methyl)-3,4-dihydroisoquinolin-1(2H)-one], the Ki was less than 0.05 nM. As for `Cc1nccn1Cc1cc2c(c(-c3cn(C)nc3C(F)(F)F)c1)CCN(c1ccccc1OC(F)(F)F)C2=O` [Example 255, 7-((2-Methyl-1H-imidazol-1-yl)methyl)-5-(1-methyl-3-(trifluoromethyl)-1H-pyrazol-4-yl)-2-(2-(trifluoromethoxy)phenyl)-3,4-dihydroisoquinolin-1(2H)-one], the figure is 0.58 nM; as for `CCn1cc(-c2cc(Cn3ccnc3C#N)cc3c2CCN([C@@H](C)c2cc(OC)ccn2)C3=O)c(C(F)(F)F)n1` [Example 179], 2.4 nM.

Consider `COc1ccnc(CN2CCc3c(cc(CNC(=N)C(F)(F)F)cc3-c3cn(C)nc3C(F)(F)F)C2=O)c1` [Example 120, 2,2,2-Trifluoro-N-((2-((4-methoxypyridin-2-yl)methyl)-5-(1-methyl-3-(trifluoromethyl)-1H-pyrazol-4-yl)-1-oxo-1,2,3,4-tetrahydroisoquinolin-7-yl)methyl)acetimidamide], for which the inhibition constant Ki was determined as 0.22 nM. With `COc1cc(CN2CCCc3c(cc(Cn4ccn(C)c4=N)cc3-c3ccc(F)cc3C)C2=O)cc(OC)c1` [Example 140, 2-(3,5-Dimethoxybenzyl)-6-(4-fluoro-2-methylphenyl)-8-((2-imino-3-methyl-2,3-dihydro-1H-imidazol-1-yl)methyl)-2,3,4,5-tetrahydro-1H-benzo[c]azepin-1-one], the Ki worked out at 0.054 nM.
